Measured values taken from the supplement of paper PMC4604168 (melanoma cell lines).
The other results are listed elsewhere or left out. Repeats are few or missing, and single values can be far off.

Legend:
Assay in all cases: cell count relative to DMSO control; melanoma cells; higher = more viable cells
Conditions in all cases: library dose: standard library concentration; 72 h
G361 = test system: G361
IPC-298 = test system: IPC-298
IST-MEL1 = test system: IST-MEL1
LB2518-MEL = test system: LB2518-MEL
LOXIMVI = test system: LOXIMVI
MEL-HO = test system: MEL-HO
MZ2-MEL = test system: MZ2-MEL
MeWo = test system: MeWo
RPMI7951 = test system: RPMI7951
RVH-421 = test system: RVH-421
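Further: cells treated in 1,536-well plates, then fixed and DAPI-stained, with nuclei counted from automated high-throughput microscope images.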

SMILES	cell count (G361) [%]	cell count (IPC-298) [%]	cell count (IST-MEL1) [%]	cell count (LB2518-MEL) [%]	cell count (LOXIMVI) [%]	cell count (MEL-HO) [%]	cell count (MZ2-MEL) [%]	cell count (MeWo) [%]	cell count (RPMI7951) [%]	cell count (RVH-421) [%]
C[C@]1(c2nc3c(C(N)=O)cccc3[nH]2)CCCN1 [Veliparib] + C=CCn1c(=O)c2cnc(Nc3ccc(N4CCN(C)CC4)cc3)nc2n1-c1cccc(C(C)(C)O)n1 [MK1775] (first compound 7 µM, partner dose 0.1 µM)	91.5	96.8	108	45.2	84.9	89.7	108	72.8	66.1	98.3
Cc1nc(Nc2ncc(C(=O)Nc3c(C)cccc3Cl)s2)cc(N2CCN(CCO)CC2)n1 [dasatanib] + CC(C)CCN1c2nc(Nc3cc(F)c(O)c(F)c3)ncc2N(C)C(=O)C1C [BID1870] (first compound 0.02 µM, partner dose 1 µM)	56.5	68.6	65.6	53.8	45.4	62.9	67.8	64.4	55.2	51.6
CN(C)S(=O)(=O)c1ccc2c(c1)/C(=C/c1cc3c([nH]1)CCCC3)C(=O)N2 + NCC(=O)Nc1ccc(-n2nc(C(F)(F)F)cc2-c2ccc3c(ccc4ccccc43)c2)cc1 [OSU03012] (first compound 2 µM, partner dose 5 µM)	62.5	45.5	58	66.7	62.4	55.2	86.1	79.2	38.5	71.9
C[C@]1(c2nc3c(C(N)=O)cccc3[nH]2)CCCN1 [Veliparib] + Oc1cc(-c2nc(-c3ccccc3)[nH]c2-c2ccncc2)ccc1Cl [L779450] (first compound 7 µM, partner dose 1 µM)	65	101	84.4	96.4	130	89.6	91.7	82.3	94.3	75.6
CO[C@@H]1[C@H](N(C)C(=O)c2ccccc2)C[C@H]2O[C@]1(C)n1c3ccccc3c3c4c(c5c6ccccc6n2c5c31)C(=O)NC4 [Midostaurin] + O=C1NC(=O)/C(=C/c2ccc(-c3ccc(F)cc3O)o2)S1 [AS252424] (first compound 0.4 µM, partner dose 5 µM)	49.5	55.6	74.6	70.2	248	55.9	34.8	67.4	41.5	61
CN(C)S(=O)(=O)c1ccc2c(c1)/C(=C/c1cc3c([nH]1)CCCC3)C(=O)N2 + O=C(O)c1ccc(-c2c[nH]c3ncc(-c4ccccc4)cc23)cc1C1CCCC1 [GSK650394] (first compound 2 µM, partner dose 0.8 µM)	51.9	53	63.9	72.3	84.9	77	90.7	73.8	57.1	84.8
C[C@]1(c2nc3c(C(N)=O)cccc3[nH]2)CCCN1 [Veliparib] + c1cc(-c2cnn3cc(-c4ccc(OCCN5CCCCC5)cc4)cnc23)ccn1 [Dorsomorphin] (first compound 7 µM, partner dose 2 µM)	46.4	83	82.6	60.6	103	84.7	57.6	63.9	68.2	86.7
NC(=O)Nc1cc(-c2cccc(F)c2)sc1C(=O)N[C@H]1CCCNC1 + O=C1NC(=O)/C(=C/c2ccc(-c3ccc(F)cc3O)o2)S1 [AS252424] (first compound 0.1 µM, partner dose 5 µM)	90.8	92.8	112	135	104	82.7	108	93.6	60.6	102
CO[C@@H]1[C@H](N(C)C(=O)c2ccccc2)C[C@H]2O[C@]1(C)n1c3ccccc3c3c4c(c5c6ccccc6n2c5c31)C(=O)NC4 [Midostaurin] + COc1cc(N2CCC(N3CCN(C)CC3)CC2)ccc1Nc1ncc(Cl)c(Nc2ccccc2S(=O)(=O)C(C)C)n1 [NVP-TAE684] (first compound 0.4 µM, partner dose 0.4 µM)	50.4	66.1	84.3	73.1	70.3	77.4	7.03	51.2	46.8	89.3
C[C@]1(c2nc3c(C(N)=O)cccc3[nH]2)CCCN1 [Veliparib] + OCCn1cc(-c2cnc3nnn(Cc4ccc5ncccc5c4)c3n2)cn1 [PF04217903] (first compound 7 µM, partner dose 5 µM)	93.4	115	97.7	87.3	77.4	104	123	113	81.3	84.6
CN(C)S(=O)(=O)c1ccc2c(c1)/C(=C/c1cc3c([nH]1)CCCC3)C(=O)N2 + COc1ccc(-c2ccc3c(N4CCOCC4)nc(N4C[C@@H](C)O[C@@H](C)C4)nc3n2)cc1CO [KU0063794] (first compound 2 µM, partner dose 0.1 µM)	61.4	60	82.1	56.4	95.5	70.8	70.2	76.9	48.3	101
CN(C)S(=O)(=O)c1ccc2c(c1)/C(=C/c1cc3c([nH]1)CCCC3)C(=O)N2 + COc1ccc2c(c1)CCC1C2CCC2(C)C(NCCCCCCN3C(=O)C=CC3=O)CCC12 [U73122] (first compound 2 µM, partner dose 2 µM)	75	88.3	97.7	87.6	114	99.7	85.5	76.8	36.2	99.2
C=CCn1c(=O)c2cnc(Nc3ccc(N4CCN(C)CC4)cc3)nc2n1-c1cccc(C(C)(C)O)n1 + CO[C@@H]1[C@H](N(C)C(=O)c2ccccc2)C[C@H]2O[C@]1(C)n1c3ccccc3c3c4c(c5c6ccccc6n2c5c31)C(=O)NC4 [Midostaurin] (first compound 0.1 µM, partner dose 0.4 µM)	48.3	39.9	57.8	46.9	48.3	65.9	49.9	50.7	31	64.1
CN(C)S(=O)(=O)c1ccc2c(c1)/C(=C/c1cc3c([nH]1)CCCC3)C(=O)N2 + Cn1cc(/C=C2\C(=O)Nc3cccnc32)c2ccccc21 [GW441756] (first compound 2 µM, partner dose 2 µM)	64.7	57.1	84	68.6	125	81.8	73.1	87.1	79.5	77.4
OCCn1cc(-c2cnc3nnn(Cc4ccc5ncccc5c4)c3n2)cn1 + CN(NC(=O)CC(=O)NN(C)C(=S)c1ccccc1)C(=S)c1ccccc1 [STA4783] (first compound 5 µM, partner dose 0.03 µM)	44.5	79.3	24.4	20.7	77.6	86.4	116	15.5	66.5	65.4
NC(=O)Nc1cc(-c2cccc(F)c2)sc1C(=O)N[C@H]1CCCNC1 + c1cc(-c2cnn3cc(-c4ccc(OCCN5CCCCC5)cc4)cnc23)ccn1 [Dorsomorphin] (first compound 0.1 µM, partner dose 2 µM)	62.5	89.7	90	82.5	105	81.9	74.6	65.6	36.1	107
CN(C)S(=O)(=O)c1ccc2c(c1)/C(=C/c1cc3c([nH]1)CCCC3)C(=O)N2 + COc1cc(N2CCC(N3CCN(C)CC3)CC2)ccc1Nc1ncc(Cl)c(Nc2ccccc2S(=O)(=O)C(C)C)n1 [NVP-TAE684] (first compound 2 µM, partner dose 0.4 µM)	78.7	70.2	83.1	74.3	211	75.9	57.8	59	33.7	63.3
CO[C@@H]1[C@H](N(C)C(=O)c2ccccc2)C[C@H]2O[C@]1(C)n1c3ccccc3c3c4c(c5c6ccccc6n2c5c31)C(=O)NC4 [Midostaurin] + CC(C)CCN1c2nc(Nc3cc(F)c(O)c(F)c3)ncc2N(C)C(=O)C1C [BID1870] (first compound 0.4 µM, partner dose 1 µM)	51.2	37.4	80.2	62.9	45.1	55.8	57.3	60.3	44.2	56.7
Cc1nc(Nc2ncc(C(=O)Nc3c(C)cccc3Cl)s2)cc(N2CCN(CCO)CC2)n1 [dasatanib] + c1cc(-c2cnn3cc(-c4ccc(OCCN5CCCCC5)cc4)cnc23)ccn1 [Dorsomorphin] (first compound 0.02 µM, partner dose 2 µM)	42.6	76.6	64.3	68.2	37.1	68.3	7.53	66.8	34.6	90.6
CO[C@@H]1[C@H](N(C)C(=O)c2ccccc2)C[C@H]2O[C@]1(C)n1c3ccccc3c3c4c(c5c6ccccc6n2c5c31)C(=O)NC4 [Midostaurin] + Oc1nc(-c2ccc(C(F)(F)F)cc2)nc2c1CSCC2 [XAV939] (first compound 0.4 µM, partner dose 10 µM)	41.7	46.8	70.4	60.3	63.7	56.3	38.4	77.4	36.2	72
OCCn1cc(-c2cnc3nnn(Cc4ccc5ncccc5c4)c3n2)cn1 + COC(=O)c1sccc1S(=O)(=O)Nc1ccc(Nc2ccccc2)cc1OC [GSK0660] (first compound 5 µM, partner dose 5 µM)	107	91.8	105	104	121	104	78.4	108	72.4	85.3
NCC(=O)Nc1ccc(-n2nc(C(F)(F)F)cc2-c2ccc3c(ccc4ccccc43)c2)cc1 + O=C(O)C(=O)Nc1sc2c(c1C(=O)O)CCNC2 [TCS401] (first compound 5 µM, partner dose 8.33333 µM)	79	59	84.2	88.7	95	84	70	90	92.8	70.9
